In all, about 310,000 compounds went through this assay and about 14,000 (4.5%) showed an effect of 50% or more. Effects have a minus sign here. This is one part of the list.
molecular target: human ether-à-go-go-related gene (hERG) potassium channel (human, UniProt Q12809); experiment: primary screen, population patch clamp on CHO cells stably expressing hERG
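Also: peak tail current of the secondary pulse compared with the same well before compound.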

human ether-à-go-go-related gene (hERG) potassium channel, sequence (Q12809 whole entry, looked up): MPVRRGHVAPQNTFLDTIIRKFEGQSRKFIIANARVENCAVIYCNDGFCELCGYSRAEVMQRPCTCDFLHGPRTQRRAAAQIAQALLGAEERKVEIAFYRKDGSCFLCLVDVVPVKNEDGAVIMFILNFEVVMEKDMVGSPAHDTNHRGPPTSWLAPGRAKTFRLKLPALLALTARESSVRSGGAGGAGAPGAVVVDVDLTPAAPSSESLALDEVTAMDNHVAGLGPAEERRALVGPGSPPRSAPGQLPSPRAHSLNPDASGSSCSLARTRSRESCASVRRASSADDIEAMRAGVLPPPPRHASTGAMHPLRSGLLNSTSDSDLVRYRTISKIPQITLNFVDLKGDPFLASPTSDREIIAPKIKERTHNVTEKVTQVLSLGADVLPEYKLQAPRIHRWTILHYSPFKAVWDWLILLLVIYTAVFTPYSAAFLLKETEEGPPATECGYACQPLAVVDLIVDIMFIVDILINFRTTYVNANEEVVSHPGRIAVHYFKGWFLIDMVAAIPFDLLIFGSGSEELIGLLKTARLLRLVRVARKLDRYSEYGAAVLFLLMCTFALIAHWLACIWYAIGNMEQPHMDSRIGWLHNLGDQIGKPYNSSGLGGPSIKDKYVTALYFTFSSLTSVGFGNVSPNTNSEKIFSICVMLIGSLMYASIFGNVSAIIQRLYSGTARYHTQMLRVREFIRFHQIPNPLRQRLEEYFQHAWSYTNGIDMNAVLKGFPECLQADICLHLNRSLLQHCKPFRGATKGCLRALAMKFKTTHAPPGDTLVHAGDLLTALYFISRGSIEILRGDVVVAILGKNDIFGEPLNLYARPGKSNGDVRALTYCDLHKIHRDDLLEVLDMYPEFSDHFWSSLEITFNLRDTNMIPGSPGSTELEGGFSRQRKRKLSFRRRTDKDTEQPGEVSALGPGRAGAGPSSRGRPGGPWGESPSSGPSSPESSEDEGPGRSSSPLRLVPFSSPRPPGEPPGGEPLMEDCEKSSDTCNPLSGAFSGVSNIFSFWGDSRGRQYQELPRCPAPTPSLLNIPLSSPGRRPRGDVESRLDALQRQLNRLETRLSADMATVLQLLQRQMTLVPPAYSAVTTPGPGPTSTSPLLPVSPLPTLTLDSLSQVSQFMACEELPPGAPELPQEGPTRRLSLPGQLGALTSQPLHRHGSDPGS

Structure (SMILES) | hERG current change (%, negative = inhibition) at 10uM
Cc1cccc(NC(=O)CC(C)S(=O)(=O)c2ccc3c(c2)NC(=O)CO3)c1C (stereo not shown) | -4.88%
Nc1ccc(N(c2ccccc2)c2ccc(N)cc2)cc1 | -12.5%
COc1ccc(C)cc1NS(=O)(=O)c1ccc2c(c1)NC(=O)C(C)S2 (stereo not shown) | 2.3%
CCOC(=O)N1CCN(Cc2nc3cc(NC(=O)CC)ccc3n2C)CC1 | 19.8%
CCCn1cc(CN2CCc3ccc(NC(=O)C4CCCO4)cc3C2)c(C)n1 (stereo not shown) | 14.7%
CSCCC(NC(=O)c1cc(C)oc1C)C(=O)O (stereo not shown) | -10%
O=C(Cc1cccs1)N=Nc1c(O)[nH]c2ccccc12 | 7.07%
Cc1ccccc1C(=O)Nc1nnc(-c2ccc(C(C)(C)C)cc2)s1 | 13%
COc1cccc(NC(=O)NC2CCCCC2C)c1 (stereo not shown) | 0.121%
O=C(O)C(=O)O.O=C(c1ccccc1)N1CCN(CC(O)Cn2ccc3ccccc32)CC1 (stereo not shown) | -31.5%
C=CCN(c1ccc(C(=O)Nc2ccc(NC(C)=O)cc2)cc1)S(C)(=O)=O | 18.7%
O=C(O)CSCc1c(F)cccc1Cl | -2.09%
Cc1cc(C)cc(NC(=O)COC(=O)Cc2ccccc2F)c1 | -4.21%
O=C1C=C(c2ccc3ncccc3c2)C[C@@H](c2ccc(F)cc2)C1 | -62.5%
COC(=O)C1=C(c2ccc(OC)c(OC)c2)C[C@@H]2CC[C@H]1N2C(=O)NCc1cc(C)oc1C(F)(F)F | 1.86%
Cc1cc(C)c2nc(N3C(=O)C(O)=C(C(=O)c4ccco4)C3c3cccc(O)c3)sc2c1 (stereo not shown) | 10.7%
COc1ccc(C(=O)Nc2nnc(Cc3ccccc3)s2)c(OC)c1 | -4.24%
CCOC(=O)c1c(C)[nH]c(C(=O)C(Cc2ccccc2)N(C)C)c1C.Cl (stereo not shown) | -9.75%
CN1CCN(C(=O)CNC(=O)Cc2ccc(Cl)cc2)CC1 | 5.31%
Cc1cc2ccccn2c1C(=O)c1ccc([N+](=O)[O-])cc1[N+](=O)[O-] | 23.4%
COc1ccccc1CNC(=O)C1CC(=O)N(c2ccc(C)c(C)c2)C1 (stereo not shown) | 2.85%
Cc1ccc(C)c(NS(=O)(=O)c2cc(C(=O)NCCC3=CCCCC3)ccc2C)c1 | -15.6%

Structure (SMILES) | hERG current change (%, negative = inhibition) at 10uM
CCOC(=O)c1cc2cc(CC(=O)c3ccc(OCC)cc3O)ccc2o1 | 9.22%
COc1ccc(NC(=O)/C(=C\c2ccc3c(c2)OCO3)NC(C)=O)cc1 | 0.111%
Cc1ccc(C)c(OCCNc2ncccc2[N+](=O)[O-])c1 | 2.67%
CCOc1ccc(NC(=O)CCC(=O)n2nc(C)cc2C)cc1 | -11.8%
COc1ccc(C(c2nnnn2C(C)(C)C)N2CCN(C(=O)c3ccco3)CC2)cc1 (stereo not shown) | -37.4%
COC(=O)C1CCN(c2ccc([N+](=O)[O-])cc2)CC1 | -21.7%
CCOc1ccc(NC(=O)NCCCN2CCCC2)cc1 | -1.89%
COc1ccc(C(=O)COC(=O)c2ccc(NC(=O)c3ccccc3)cc2)cc1 | -4.73%
S=c1[nH]c(-c2ccccc2)cn1/N=C/c1cccc2ccccc12 | 24.1%
Cc1noc(C)c1S(=O)(=O)N(CC(=O)Nc1ccc2c(c1)OCO2)c1ccc(C(C)C)cc1 | 10.2%
Cc1ccc(C(=O)NC2=NCCS2)cc1 | 4.59%
COc1ccc(C(=O)NC2CCCc3c2cnn3-c2ccccc2F)o1 (stereo not shown) | -3%
CCOc1ccc(N=C(/C(C(=O)C(=O)N2CCOCC2)=C(/O)c2ccccc2)c2ccccc2)cc1 | 15.6%
CC(/C=C/C1(O)C(C)CC(=O)CC1(C)C)OC1OC(CO)C(O)C(O)C1O (stereo not shown) | 4.5%
CCOC(=O)COc1c(Br)cc(C2NC(=O)NC(C)=C2C(C)=O)cc1OC (stereo not shown) | 7.28%
O=C(COC(=O)CC1CCCC1)Nc1cccc(F)c1 | -1.79%
CCOc1ccc(C(=O)Nc2ccc(S(=O)(=O)N3C[C@@H]4C[C@@H](C3)c3cccc(=O)n3C4)cc2)cc1 | -10.8%
CC(C)OC(=O)CSc1nnc(-c2ccc(Cl)cc2Cl)n1N | -4.95%
COCCn1c(=N)c(C(=O)NCc2ccco2)cc2c(=O)n3cc(C)ccc3nc21 | -82.1%
O=C(CC1C(=O)N(c2ccccc2)C(=O)N1C1CCCCC1)Nc1ccccc1 (stereo not shown) | 14.1%
COc1cc(/C=N\n2nnnc2N)ccc1OCc1ccc(F)cc1 | -15.4%
